Reference: paper PMC4336329 (PLoS ONE, 2015)
The whole screen tested about 310,000 compounds, of which about 14,000 (4.5%) showed an effect of 50% or more. The effect is printed as a negative number. The list shows a part of the results.

Target: human ether-à-go-go-related gene (hERG) potassium channel (human, UniProt Q12809)
Assay: primary screen, population patch clamp on CHO cells stably expressing hERG
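Further: peak tail current of the secondary pulse compared with the same well before compound.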

human ether-à-go-go-related gene (hERG) potassium channel, sequence (Q12809 whole entry, looked up): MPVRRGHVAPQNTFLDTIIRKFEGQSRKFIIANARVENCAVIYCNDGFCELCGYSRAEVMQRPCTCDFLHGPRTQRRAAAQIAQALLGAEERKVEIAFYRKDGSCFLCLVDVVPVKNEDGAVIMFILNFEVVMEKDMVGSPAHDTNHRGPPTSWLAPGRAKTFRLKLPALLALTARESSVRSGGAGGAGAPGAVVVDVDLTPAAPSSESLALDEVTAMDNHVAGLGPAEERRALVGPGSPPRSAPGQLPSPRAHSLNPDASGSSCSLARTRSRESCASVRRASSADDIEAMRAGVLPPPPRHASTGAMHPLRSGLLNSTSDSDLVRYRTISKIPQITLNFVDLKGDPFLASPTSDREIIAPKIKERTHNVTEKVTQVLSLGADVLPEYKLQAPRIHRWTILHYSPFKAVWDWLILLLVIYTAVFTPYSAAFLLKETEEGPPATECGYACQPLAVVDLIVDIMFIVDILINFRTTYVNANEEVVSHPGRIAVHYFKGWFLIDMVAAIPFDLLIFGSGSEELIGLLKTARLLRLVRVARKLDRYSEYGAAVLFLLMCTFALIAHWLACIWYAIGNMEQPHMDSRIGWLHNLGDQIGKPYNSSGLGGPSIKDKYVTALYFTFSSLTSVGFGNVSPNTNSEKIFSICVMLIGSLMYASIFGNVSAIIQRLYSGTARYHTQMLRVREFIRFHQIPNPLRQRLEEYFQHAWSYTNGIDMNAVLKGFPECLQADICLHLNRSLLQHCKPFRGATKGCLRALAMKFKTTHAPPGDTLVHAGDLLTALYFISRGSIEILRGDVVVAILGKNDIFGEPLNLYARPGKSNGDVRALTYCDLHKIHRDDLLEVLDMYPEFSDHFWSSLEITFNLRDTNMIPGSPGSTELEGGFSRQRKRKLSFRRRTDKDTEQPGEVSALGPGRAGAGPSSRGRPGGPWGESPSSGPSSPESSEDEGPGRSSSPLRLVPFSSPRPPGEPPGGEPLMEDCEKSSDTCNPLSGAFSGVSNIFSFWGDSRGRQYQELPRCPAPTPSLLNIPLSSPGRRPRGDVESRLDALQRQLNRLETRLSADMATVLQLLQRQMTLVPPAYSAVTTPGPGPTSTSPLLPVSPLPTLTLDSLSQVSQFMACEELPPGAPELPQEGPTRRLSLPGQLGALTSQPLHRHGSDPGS

| SMILES | hERG current change (%, negative = inhibition) at 10uM |
| --- | --- |
| CC(C)c1c(O)nc(SCCN2CCOCC2)[nH]c1=O.Cl | 19% |
| CCC(C)(C(=O)NC1CCCCC1)N(CC1CCCO1)C(=O)c1ccccn1 (stereo not drawn) | -63.3% |
| CC(c1ccncn1)N(C)Cc1nc(-c2ccc(C(F)(F)F)cc2)no1 (stereo not drawn) | 16.2% |
| Cc1[nH]c2ccccc2c1C(=O)/C=C/c1ccccc1Cl | 12.3% |
| O=C(NCCN1CCOCC1)c1ccc(/C=C2\Sc3ccccc3N(Cc3ccccc3F)C2=O)cc1 | 13.7% |
| CCC1(O)CC(c2ccccc2)=NN1C(=O)c1ccccc1F (stereo not drawn) | 20.2% |
| CCOC(=O)c1ccc(NC(c2ccc(N(C)C)cc2)P(=O)(OC(C)C)OC(C)C)cc1 (stereo not drawn) | 9.62% |
| CCCc1n[nH]c(=O)c2c1nnn2Cc1ccccc1F | 6.71% |
| O=C1N[C@@H](Cc2cn(S(=O)(=O)c3ccccc3)c3ccccc23)C(=O)N[C@H]1Cc1ccccc1 | 14.9% |
| Cc1nc2ccc(-c3nc4cc(N)ccc4o3)cc2[nH]1 | 15.7% |
| CC(C)C(NC(=O)OCc1ccccc1)C(=O)NC1CCCCC1 (stereo not drawn) | 6.38% |
| COc1cccc(C(=O)NCCS(=O)(=O)NCc2ccccn2)c1 | 0.974% |
| CCc1nccc2c1[nH]c1ccccc12 | -35.2% |
| C=CCn1c(O)c(/C=C2/C=c3ccccc3=N2)c(=O)[nH]c1=S | 20.7% |
| O=C(Cn1c(=O)cnc2ccccc21)Nc1cccc(S(=O)(=O)N2CCCCC2)c1 | -50.3% |
| Oc1ccc(C2=NNC(c3ccc(O)cc3)=NN2)cc1 | -18.8% |
| N#CCCN(C(=O)COC(=O)c1nc(Cl)ccc1Cl)c1ccccc1 | 12.9% |
| CCN(CC)S(=O)(=O)c1cc(C(=O)OCC(=O)Nc2c(F)cccc2F)ccc1F | -11.9% |
| OCC1(CCOc2ccccc2)CCN(Cc2ccc(OC(F)F)cc2)CC1 | -79% |

| SMILES | hERG current change (%, negative = inhibition) at 10uM |
| --- | --- |
| C=CCNC(=O)c1nc2ccccc2s1 | -4.67% |
| COc1ccc(/C=N/N=C2/NC(=O)C(c3ccccc3)(c3ccccc3)S2)cc1 | 13.3% |
| COc1ccc(C(=O)NC(=S)Nc2ccc3oc(=O)ccc3c2)cc1[N+](=O)[O-] | 8.84% |
| CCc1ccccc1Oc1ccc(S(=O)(=O)N2CCN(C)CC2)cn1 | -6.65% |
| COc1ccccc1NS(=O)(=O)c1ccc(C)c(C(=O)NCc2cccnc2)c1 | -17.9% |
| COC(=O)CCN(C(=O)c1ccc2c(c1)OCO2)c1ccccn1 | 11.4% |
| O=C1CCCC(O)=C1C=NCCc1ccccc1 | 4.42% |
| O=C(NCc1ccco1)C1CCCN(S(=O)(=O)c2ccc(Br)cc2)C1 (stereo not drawn) | 1.49% |
| CN(C)c1nc(=S)nc(NCc2ccccc2)[nH]1 | 10.9% |
| COc1cc(/C=N/NC(=O)c2sc(N)c(C#N)c2C)cc(Br)c1O | 11.3% |
| C=CCNC(=O)c1ccc(N(C)S(=O)(=O)c2ccc(OC)cc2)cc1 | -57.4% |
| O=C(CSc1nncs1)Nc1ccc2c(c1)OCCO2 | 13.3% |
| Cc1cccc(C(C)C)c1NC(=O)C(C)OC(=O)Cn1cnc2c1c(=O)n(C)c(=O)n2C (stereo not drawn) | -2.52% |
| Cc1c(NC(=O)c2ccc(N(C)S(=O)(=O)c3ccccc3)cc2)c(=O)n(-c2ccccc2)n1C | 8.24% |
| CCOC(=O)C1CCN(C(=O)C2CCCCC2)CC1 | -2.91% |
| CC(=O)Nc1c([N+](=O)[O-])cc(C)c(Cl)c1[N+](=O)[O-] | 6.22% |
| CC1CCCCC1NC(=O)CN1CCC(NC(=O)c2cccc(F)c2)CC1 (stereo not drawn) | -11.3% |
| CC(C(=O)NCc1ccc(Cl)cc1)n1cccc1C(=O)c1ccccc1 (stereo not drawn) | -21.4% |
| C[C@@H]1NC(=O)c2cc([N+](=O)[O-])cc(F)c2NCCC[C@@H](C(N)=O)NC(=O)[C@H](CC(N)=O)NC1=O | 30% |

| SMILES | hERG current change (%, negative = inhibition) at 10uM |
| --- | --- |
| CCOC(=O)CSc1nc2c(c(=O)[nH]c(=O)n2C)n1CCc1ccccc1 | -1.16% |
| CC(C)c1nc(SCC(=O)Nc2cccc(S(N)(=O)=O)c2)n[nH]1 | 8.6% |
| c1cnc(SCCOc2ccc3c(c2)CCC3)nc1 | 4.62% |
| CCOC(=O)C1CSc2[nH]c(=O)sc2C1c1ccccc1 (stereo not drawn) | -25% |
| COc1ccc(OC)c(NC(=S)N2CCN(Cc3ccccc3)CC2)c1 | 11% |
| COc1cccc(COC(=O)c2nn(-c3ccccc3)nc2N)c1 | 17.1% |
| Cc1ccc2nc(CSc3nnc(-c4ccco4)o3)cc(=O)n2c1 | -64.9% |
| CCOc1ccc(NCc2cc3c(C(C)(C)C)nn(-c4ccccc4)c3[nH]c2=O)cc1 | -6.53% |
| CC1=C(C(=O)OCCOC(C)C)C(c2cccc3ccccc23)NC(=O)N1 (stereo not drawn) | -6.59% |
| Cn1c(=O)[nH]c(=O)c2c1nc(N1CCCCCC1)n2CCCSc1nc2ccccc2o1 | -38.3% |
| COc1ccc(C(CNC(=O)C(CCSC)NC(=O)c2ccccc2Cl)N2CCCC2)cc1 (stereo not drawn) | -34.9% |
| COC(=O)c1ccc(NC(=O)Cc2ccc(C)cc2)cc1 | 21.5% |
| OC1(CC#CCN2CCCCC2)c2ccccc2-c2ccccc21 | -24.1% |
| C=C(C)C1CC=C(C)/C(=N/NC(=O)c2cccc([N+](=O)[O-])c2)C1 (stereo not drawn) | 10.5% |
| COc1ccc(C(CC(=O)O)NC(=O)c2cccs2)cc1 (stereo not drawn) | 9.07% |
| O=c1c2ccccc2c2ccccc2c(=O)n1Cc1ccco1 | 3.47% |
| Cc1noc(C)c1CSc1nc2ccccc2[nH]1 | 7.07% |
| CCn1cc(C(=O)N2CCCC(N3CCN(c4cccc(C(F)(F)F)c4)CC3)C2)cn1 (stereo not drawn) | -29.2% |
| O=C(CSc1nc2ccccc2o1)Nc1nc2ccc(Br)cc2s1 | 6.54% |
